Results reported in the supplement of paper PMC11417369.
The other results are listed elsewhere or left out.

Each sequence was assayed on PfAP2-HC AP2 domain (GST-tagged) (assay: gcPBM binding intensity (ln(normalized median fluorescence intensity)); higher = stronger DNA binding).
In short: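 In this array assay, P. falciparum DNA-binding domains with a GST tag, expressed in E. coli, were applied for 1 h to primer-extended double-stranded 36-bp intergenic genomic probes and negative controls on an Agilent 4 × 180k array. Bound protein was visualised with Alexa488 anti-GST antibody at 488 nm. Binding intensity is the highest Masliner-normalised natural-log median intensity across replicate spots of either probe orientation.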

Sequence	gcPBM binding intensity (ln)
TTATTTTTTATAAAATGTACATATATTTTAAATATA [XGTACX_site4026]	9.34
TGAAGCAAAAACAAAACACACATATAAATAAATAAA [CACACA_site3925]	10.1
ACCAATCCAAAAGAATGTACCCATGTTTTAAAATAT [XGTACX_site2907]	9.66
TTGAAGTGTACTATTTTATATATATATATACATTTT [CACACA_negctrl_site224]	10.1
TAGAAATATATTTATTGTACATTGTATATATTATAT [XGTACX_site7584]	9.53
TTTTAATTTTTAAGACGTACTATCATTTGATAATAA [XGTACX_site3942]	9.2
TACGATGTTTTAAAATGTACATAAAAGTCACATAAG [XGTACX_site3297]	9.58
TAATGTTCCTATATAGTGCAATTATGTTTTATTTCT	9.81
TCTTTTTTTTTTACTAGTACTTAAAAAAAAAATATG [XGTACX_site4395]	9.45
ATTATGTGCCAATACACACACACATCTATATTTATA [CACACA_site6359]	10.3
TATTTATAAATATACGCACACATTAATATATATATA [CACACA_site3969]	9.79
AGTATGTAAATGTGCCATATATATATTAAATACATA [CACACA_negctrl_site14]	9.72
ATATTATTTATTTTTAAATTATATTGATTATTTTTT [CACACA_negctrl_site451]	9.62
GTTGGTAGGCGGTACGGTACACGTAGTATTTTTCTT [XGTACX_site4213]	9.73
TTTTTTTCATATATATGTACATAATTATATATGCAT [XGTACX_site3257]	9.77
AAATAGTAAGAGATGGTGCGTTTCCTTTTTTTTTTT [GTGCAC_site9663]	10.2
TTTAAAAATATTTCACGTACGCATTTTAAAAAGTAT [XGTACX_site8026]	9.54
TTAATTATATGGTAAACAAATAAATGTGAAAGGAAA [XGTACX_negctrl_site389]	9.67
CGTGGGAGCAGACACACACACACACCCATATATATA [CACACA_site334]	10.7
TTATTATATAAATAAAAAAAAAAAAAAAAAAAAAAA [CACACA_negctrl_site1455]	8.68
TATATACGCATGCGCACACACAAGTGGGAAATTTGG [CACACA_site1785]	10.2
ACTGTGGGAATAACCACACACACACCCACATATATA [CACACA_site3542]	10.2

Sequence	gcPBM binding intensity (ln)
ATATTTATATGAATCACACACAAAAAATATAGAGAT [CACACA_site7775]	10.1
AAATCACAAAAAAAAAAAAAAATATATATATATATA [CACACA_negctrl_site10]	9.29
CATAAATACAAATATACACACATATATATATATATA [CACACA_site2633]	9.89
AATATGTTTTTTAGATGTACAGATTAAATATTAAAA [XGTACX_site7308]	9.49
AAAAAAAAAAAAAAAACACACAAACATCAAATTACT [CACACA_site6950]	9.99
AATTTCAATTTCTGTTGTACACTTTTTAATAGTAAA [XGTACX_site4085]	9.61
AAATTTAAAAATAAAGAACACACATATGTAAAATAT [CACACA_site9252]	9.95
TTTTGTATTTTTCACACACACATAAGTAAACAATAA [CACACA_site1899]	10.2
TATATTATATATATATGTACATATTATTATATCTAA [XGTACX_site3835]	9.66
TAAATGAAAATATGTACACACTTGAAAATTTTTATG [CACACA_site5599]	9.72
AATCTTTTTAAATCTTGATTAATTTCGGGTATATAT [TGCATGCA_negctrl_site107]	9.45
TACAAGAACAAAAAATGTACGAAATAATTACAAATA [XGTACX_site5824]	9.9
AAATTAAATATTATATTAATTCTTAAATTTTTTTTT [CACACA_negctrl_site439]	9.2
ATACAATAATATAAATGTACAAATTATATCTTCATT [XGTACX_site8994]	9.74
AAACATATGGTATTTAAACACACAAAAAAGAAAGAA [CACACA_site8239]	10.2
ATGTTGTGGATATATACACACATACATATTTATATA [CACACA_site6857]	9.79
AAGTGTTCTTGTTATACACACACATATATATATATA [CACACA_site8251]	9.94
TAGCATGATTTGCCTTGTACACAACCGTTTTAATAA [XGTACX_site7911]	9.69
TATGATAAATATGGAGCACACACACCGAAACATACA [CACACA_site8031]	10.8
TGTGCTATATTCATATGTACATATAATTATTATATA [XGTACX_site3549]	9.7
ATAAAATAAAAGTGTACACAAGAAAATATGTTATGT [CACACA_site6033]	10
ATAATATATTTATAATGTACATAAGAACAAATTAAA [XGTACX_site1745]	9.71
